Some of the results follow. Single values are uncertain, as repeats are few or missing.
test system: LB2518-MEL; experiment: cell count relative to DMSO control; melanoma cells; higher = more viable cells; settings: library dose: standard library concentration; 72 h
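Further: cells treated in 1,536-well plates, then fixed and DAPI-stained, with nuclei counted from automated high-throughput microscope images.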

Row | SMILES | cell count [%]
1 | COCC[n+]1c2c(n(Cc3cnccn3)c1C)C(=O)c1ccccc1C2=O + CCc1ccc(CCOc2ccc(CC3SC(=O)NC3=O)cc2)nc1 [pioglitazone] (first compound 0.002 µM, partner dose 10 µM) | 25.4
2 | Clc1ccc(Nc2nnc(Cc3ccncc3)c3ccccc23)cc1 [vatalanib] + Oc1cc(-c2nc(-c3ccccc3)[nH]c2-c2ccncc2)ccc1Cl [L779450] (first compound 10 µM, partner dose 1 µM) | 82.3
3 | Clc1ccc(Nc2nnc(Cc3ccncc3)c3ccccc23)cc1 [vatalanib] + Cn1cc(/C=C2\C(=O)Nc3cccnc32)c2ccccc21 [GW441756] (first compound 10 µM, partner dose 2 µM) | 67
4 | Nc1cccc2c1CN(C1CCC(=O)NC1=O)C2=O (stereo unspecified) [lenalidomide] + O=S(=O)(c1ccccc1)N(CC(F)(F)F)c1ccc(C(O)(C(F)(F)F)C(F)(F)F)cc1 [T0901317] (first compound 5 µM, partner dose 7 µM) | 124
5 | Nc1cccc2c1CN(C1CCC(=O)NC1=O)C2=O (stereo unspecified) [lenalidomide] + CN(C)S(=O)(=O)c1ccc2c(c1)/C(=C/c1cc3c([nH]1)CCCC3)C(=O)N2 [SU6656] (first compound 5 µM, partner dose 2 µM) | 75.8
6 | C#Cc1cccc(Nc2ncnc3cc(OCCOC)c(OCCOC)cc23)c1 [erlotinib] + COc1cc(Nc2ncc(F)c(Nc3ccc4c(n3)NC(=O)C(C)(C)O4)n2)cc(OC)c1OC [Tamatinib] (first compound 4 µM, partner dose 2 µM) | 102
